This note sets out measurements from ChEMBL document CHEMBL5518249, “Structure-Guided Discovery and Preclinical Assessment of Novel (Thiophen-3-yl)aminopyrimidine Derivatives as Potent ERK1/2 Inhibitors” (J Med Chem, 2024).

By IC50 is commonly meant the concentration at which inhibition is half-maximal. Broadly, the half-life is the time needed for the level to fall by half in the phase considered. Lower therefore signals fast loss. One may read the Tmax as the time at which the peak concentration occurs. A word on the MRT inf: it is a mean duration of stay, worked out from the concentration-time curve. As usually defined, the Cmax is the maximum level reached in the sampled fluid or tissue. As usually defined, the AUC(0-t) is exposure summed from dosing to a finite time, without extrapolation to infinity. A low value points to low exposure. Usually AUC(0-inf) stands for total exposure, with the tail of the curve extrapolated. Higher therefore signals high exposure. One may read the Vd as the apparent volume that relates the amount in the body to the concentration in plasma or blood. Read a high Vd as extensive tissue distribution. The term clearance denotes the rate of elimination divided by the concentration. As a reminder, the bioavailability is dose-corrected exposure relative to a reference, in per cent.

For one series, the system named is MDA-MB-231. In words: cells. The settings on record: Homo sapiens, MDA-MB-231, 24 h.
The test system of a further series is RKO. Kind of series: cells. The settings on record: Homo sapiens, 24 h.
Series [1] can be described thus: in vivo. The settings on record: Sprague-Dawley, rat, iv, 1 mg/kg.
Series [2] in a line: in vivo. Conditions: Sprague-Dawley, rat, iv, 1 mg/kg. The source holds these as a separate data set.
The nature of series [3]: in vivo. The settings on record: Sprague-Dawley, rat, iv, 1 mg/kg. This is another data set of the same source.
A short description of series [4]: in vivo. Conditions: Sprague-Dawley, rat, iv, 1 mg/kg. This is another data set of the same source.
Series [5] is described as follows: in vivo. The settings on record: Sprague-Dawley, rat, iv, 1 mg/kg. The source holds these as a separate data set.
A short description of series [6]: in vivo. The settings on record: Sprague-Dawley, rat, iv, 1 mg/kg. This is another data set of the same source.
Series [7] can be described thus: in vivo. The settings on record: Sprague-Dawley, rat, iv, 1 mg/kg. The source holds these as a separate data set.
Series [8] is described as follows: in vivo. The settings on record: Sprague-Dawley, rat, iv, 1 mg/kg. The source holds these as a separate data set.
Series [9] can be described thus: in vivo. The settings on record: Sprague-Dawley, rat, iv, 1 mg/kg. This is another data set of the same source.
Series [10] can be described thus: in vivo. The settings on record: Sprague-Dawley, rat, po, 10 mg/kg.
Series [11] in a line: in vivo. The settings on record: Sprague-Dawley, rat, po, 10 mg/kg. This is another data set of the same source.
A short description of series [12]: in vivo. Conditions: Sprague-Dawley, rat, po, 10 mg/kg. This is another data set of the same source.
Series [13] in a line: in vivo. Conditions: Sprague-Dawley, rat, po, 10 mg/kg. The source holds these as a separate data set.
A short description of series [14]: in vivo. The settings on record: Sprague-Dawley, rat, po, 10 mg/kg. This is another data set of the same source.
Series [15] in a line: in vivo. Conditions: Sprague-Dawley, rat, po, 10 mg/kg. The source holds these as a separate data set.
Series [16] is described as follows: in vivo. The settings on record: Sprague-Dawley, rat, po, 10 mg/kg. The source holds these as a separate data set.

As to `Cc1cc(Nc2ncc(Cl)c(-c3csc(C(=O)NCc4ccc(F)c(Cl)c4)c3)n2)n(C)n1`, the IC50 in the series on MDA-MB-231 and with RKO was over 50 µM in each case.

With `Cn1nccc1Nc1ncc(Cl)c(-c2csc(C(=O)NCc3cccc(Cl)c3)c2)n1`, the values for the IC50 in the series on MDA-MB-231 and in the series with RKO were 18.8 µM and 16.3 µM, respectively.

In the case of `Cn1nccc1Nc1ncc(Cl)c(-c2csc(C(=O)NCc3ccccc3OC(F)(F)F)c2)n1`, the figures for the IC50 with MDA-MB-231 and in the series with RKO were 20 µM and 16 µM, respectively.

In the case of `Cn1nccc1Nc1nccc(-c2csc(C(=O)NCc3ccc(F)c(Cl)c3)c2)n1`, the IC50 in the series with MDA-MB-231 came to 22.7 µM; with RKO, 20.5 µM.

Regarding `Cc1nn(C)cc1Nc1ncc(Cl)c(-c2csc(C(=O)NCc3ccc(F)c(Cl)c3)c2)n1`, the IC50 in the series with MDA-MB-231 turned out to be 20.1 µM; in the series with RKO, 18.9 µM.

Take `Cn1nccc1Nc1ncc(F)c(-c2csc(C(=O)NCc3ccc(F)c(Cl)c3)c2)n1`: the IC50 in the series with MDA-MB-231 is over 50 µM; with RKO, 29.6 µM.

For the compound `Cn1nccc1Nc1ncc(Cl)c(-c2csc(C(=O)NCc3cccc(OC(F)(F)F)c3)c2)n1`, the IC50 in the series with MDA-MB-231 and in the series with RKO was over 50 µM each time.

Turning to `COc1ccc(CNC(=O)c2cc(-c3nc(Nc4ccnn4C)ncc3Cl)cs2)cc1`, the IC50 in the series with MDA-MB-231 and in the series on RKO was over 50 µM each time.

`Cn1nccc1Nc1ncc(Cl)c(-c2csc(C(=O)NCc3ccc(Br)cc3)c2)n1`: the IC50 with MDA-MB-231 and in the series with RKO was over 50 µM each time.

As for `Cc1cc(Nc2ncc(Cl)c(-c3csc(C(=O)N[C@H](CO)c4cccc(Cl)c4)c3)n2)ccn1`, the IC50 worked out at 7.3 µM in the series on MDA-MB-231 and 5.36 µM in the series on RKO.

With `Cn1nccc1Nc1ncc(Cl)c(-c2csc(C(=O)NCc3ccc(F)c(Cl)c3)c2)n1`, the IC50 amounted to 6.23 µM with MDA-MB-231 and 5.89 µM in the series on RKO.

On to `Cn1nccc1Nc1ncc(Cl)c(-c2csc(C(=O)NCc3cccc(F)c3)c2)n1`, for which the values for the IC50 in the series with MDA-MB-231 and with RKO were 29.6 µM and 33.9 µM, respectively.

On to `Cn1nccc1Nc1ncc(Cl)c(-c2csc(C(=O)NCc3ccc(F)c(F)c3)c2)n1`, for which the values for the IC50 in the series with MDA-MB-231 and in the series with RKO were 17.3 µM and 19.5 µM, respectively.

Take `Cc1cc(Nc2ncc(Cl)c(-c3csc(C(=O)N[C@H](CO)c4ccccc4)c3)n2)ccn1`: the figures for the half-life at 24 h in “in vivo [1]” and in the series “in vivo [10]” were 0.96 h and 1.79 h, respectively. The results for the time to peak (Tmax) at 24 h in the series “in vivo [2]” and in “in vivo [11]” were 0.25 h and 4 h, respectively. The MRT inf at 24 h came to 0.86 h in “in vivo [3]” and 4.28 h in “in vivo [12]”. The Cmax at 24 h in the series “in vivo [4]” worked out at 265 ng/mL; in the series “in vivo [13]” it was 120 ng/mL. Besides, the figures for the AUC(0-t) at 24 h in “in vivo [5]” and in “in vivo [14]” were 305 ng·h/mL and 537 ng·h/mL, respectively. In addition, the AUC(0-inf) at 24 h in “in vivo [6]” is 307 ng·h/mL; in the series “in vivo [15]”, 550 ng·h/mL. The Vd at 24 h in the series “in vivo [7]” turned out to be 2.79 L/kg; in the series “in vivo [8]”, 4.52 L/kg. In addition, the clearance at 24 h in “in vivo [9]” is 54.1 mL/min/kg. For the same compound, the bioavailability at 24 h in the series “in vivo [16]” worked out at 17.6%.

Regarding `Cn1nccc1Nc1ncc(Cl)c(-c2csc(C(=O)NCc3ccc(OC(F)(F)F)cc3)c2)n1`, the IC50 with MDA-MB-231 and in the series with RKO was over 50 µM each time.

Take `Cn1nccc1Nc1ncc(Cl)c(-c2csc(C(=O)NCc3ccc(Cl)cc3Cl)c2)n1`: the IC50 in the series on MDA-MB-231 and with RKO was over 50 µM each time.

In the case of `O=C(NCc1ccc(F)c(Cl)c1)c1cc(-c2nc(NC3CCOCC3)ncc2Cl)cs1`, the IC50 in the series on MDA-MB-231 was 5.94 µM; in the series on RKO it was 6.23 µM.

Take `Cn1nccc1Nc1ncc(Cl)c(-c2csc(C(=O)Nc3ccc(F)c(Cl)c3)c2)n1`: the IC50 in the series on MDA-MB-231 and with RKO was over 50 µM in each case.

In the case of `Cc1cc(Nc2ncc(Cl)c(-c3csc(C(=O)NCc4ccc(F)c(Cl)c4)c3)n2)ccn1`, the IC50 amounted to 3.16 µM in the series on MDA-MB-231 and 3.54 µM in the series with RKO.

Consider `COc1cnc(Nc2ccnn2C)nc1-c1csc(C(=O)NCc2ccc(F)c(Cl)c2)c1`, for which the values for the IC50 with MDA-MB-231 and with RKO were 11.6 µM and 12.5 µM, respectively.

`COc1cc(Nc2ncc(Cl)c(-c3csc(C(=O)NCc4ccc(F)c(Cl)c4)c3)n2)ccn1`: the IC50 in the series on MDA-MB-231 is 23.6 µM; in the series on RKO, 21.1 µM.

For the compound `Cc1cc(Nc2ncc(Cl)c(-c3csc(C(=O)N[C@@H](CO)c4cccc(Cl)c4)c3)n2)ccn1`, the IC50 is 15.3 µM with MDA-MB-231 and 11.3 µM with RKO.
